Source: publication PMC6919601, “Identification of Plasmodium dipeptidyl aminopeptidase allosteric inhibitors by high throughput screening” (PLoS ONE, 2019)
Where “and” joins values, the source holds several entries; their conditions need not be identical. Equal entries are not always repeated. Hit rate of the full screen: of about 110,000 compounds, about 230 (0.21%) showed an effect of 50% or more. The list shows a part of the results.

The compounds below were run against DPAP1 (Plasmodium falciparum, UniProt Q8IIJ9) (assay: primary screen, percent inhibition; read by cleavage of a fluorogenic dipeptide substrate; higher = more effect of the substance).
Chain of DPAP1 (Q8IIJ9 whole entry, looked up): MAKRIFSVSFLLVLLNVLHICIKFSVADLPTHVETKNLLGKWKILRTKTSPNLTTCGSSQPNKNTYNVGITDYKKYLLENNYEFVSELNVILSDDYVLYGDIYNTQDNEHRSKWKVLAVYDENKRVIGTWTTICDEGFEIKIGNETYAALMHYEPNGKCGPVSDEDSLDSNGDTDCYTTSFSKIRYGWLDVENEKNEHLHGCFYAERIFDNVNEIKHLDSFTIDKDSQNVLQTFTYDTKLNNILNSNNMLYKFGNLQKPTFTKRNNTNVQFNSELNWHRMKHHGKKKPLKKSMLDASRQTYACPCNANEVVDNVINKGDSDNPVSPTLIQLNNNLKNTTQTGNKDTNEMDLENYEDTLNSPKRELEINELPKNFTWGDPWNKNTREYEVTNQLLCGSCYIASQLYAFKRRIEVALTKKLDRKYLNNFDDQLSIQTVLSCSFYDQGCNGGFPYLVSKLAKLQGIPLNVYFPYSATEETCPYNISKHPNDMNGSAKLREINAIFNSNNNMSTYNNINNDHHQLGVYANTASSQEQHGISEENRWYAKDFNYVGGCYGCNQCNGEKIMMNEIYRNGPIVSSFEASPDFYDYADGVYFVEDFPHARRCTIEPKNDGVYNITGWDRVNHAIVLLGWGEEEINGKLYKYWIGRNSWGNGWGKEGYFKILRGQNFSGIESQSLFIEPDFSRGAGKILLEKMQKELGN
Set-up: species or system P. falciparum D10 trophozoite lysates; single well
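Note: 30 min substrate incubation versus DMSO and 10 µM JCP410 controls.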

| SMILES | % Inhibition @ 10 uM |
| --- | --- |
| CCOC(=O)C1=C(C)OC(N)=C(C#N)C1c1ccc2ccccc2c1 (stereo not shown) | -4.94% |
| COc1ccccc1OCCn1c(SCC(=O)O)nc2ccccc21 | -13.3% |
| Clc1ccccc1-c1nnc(-c2cccc(Cl)c2Cl)o1 | 11% |
| O=C(NCCc1ccccc1)C1CCN(S(=O)(=O)c2ccc(Br)cc2)CC1 | 0.583% |
| CCN1/C(=C\C(=O)c2ccco2)Sc2ccccc21 | -4.35% |
| CCOC(=O)C1=C(NC(=O)c2ccc(C(C)(C)C)cc2)S/C(=C\c2ccc(C(=O)OC)cc2)C1=O | -6.42% |
| Cc1cccc(N2C(=O)c3cccc4c(Cl)ccc(c34)C2=O)n1 | -3.04% |
| Cc1ccc(C(=O)Nc2sc3c(c2C(=O)N(C)C)CCCCC3)cc1 | 4.05% |
| OCCSc1nnc(COc2ccc(Br)cc2)n1Cc1ccccc1 | -4.91% |
| CCCN1CC2=C(OC(N)=C(C#N)C2c2ccc(OC)cc2)/C(=C/c2ccc(OC)cc2)C1 (stereo not shown) | 47.6% |
| COC(=O)/C(C#N)=C/c1c(Oc2cccc(C)c2C)nc2c(C)cccn2c1=O | -1.43% |
| COc1ccc(S(=O)(=O)Nc2cc(Cl)ccc2OC)cc1 | 3.53% |
| Cc1sc(Nc2ccc(C(=O)O)cc2)nc1-c1ccc(Cl)cc1 | 6.31% |
| CCCCn1c(CCCNC(=O)C(C)(C)C)nc2ccccc21 | -0.58% |
| N#Cc1cccc(NC(=O)c2ccccc2Cl)c1 | 7.54% |
| O=C(Nc1ccc(S(=O)(=O)N2CCCCCC2)cc1)Nc1cccc2ccccc12 | -0.48% |
| O=[N+]([O-])c1ccccc1S(=O)(=O)Nc1cccc2cccnc12 | -3.48% |
| O=[N+]([O-])c1ccccc1S(=O)(=O)N1CCN(c2ccc(F)cc2)CC1 | 0.827% |
| C=CCOc1ccc(C2C(C(=O)c3ccc(OCC)cc3C)=C(O)C(=O)N2Cc2cccnc2)cc1 (stereo not shown) | 1.31% |
| COc1ccc(N2C(=O)CC(NCCCN3CCOCC3)C2=O)cc1 (stereo not shown) | 4.07% |
| CCC1=NC(CC)(CC)c2ccccc2O1 | 3.96% |
| COCCCNC(=O)Cn1nc(C)c2c(C)n(-c3ccccc3)nc2c1=O | 2.31% |

| SMILES | % Inhibition @ 10 uM |
| --- | --- |
| CN1C(=O)C(O)=C(C(=O)c2ccccc2)C1c1ccccc1 (stereo not shown) | -0.711% |
| Cc1ccc(CNC(=O)CCc2c(C)nc3nc(CNC(=O)c4cccc(F)c4)nn3c2C)cc1 | -2.17% |
| O=C(/C=C/C=C(Cl)Cl)c1ccc(O)cc1 | 0.035% |
| CCCCn1c(=O)c(C(=O)Nc2cccc(C)c2)c(O)c2ccccc21 | 2.03% |
| O=C1C2CCCN2C(=O)N1CCCCN1CCN(c2cccc(C(F)(F)F)c2)CC1 (stereo not shown) | 1.64% |
| Cc1cccc(OCCn2c(N)nc3ccccc32)c1 | 5.94% |
| COC(=O)c1c(C(=O)OC)c2n(c1C)[C@@H](c1ccc(Cl)cc1)SC2 | -2.63% |
| CCCCNC(=O)Nc1ccccc1C(=O)NCCC | 8.05% |
| COc1ccccc1CNC(=O)c1cc(S(=O)(=O)N2CCCC2)cn1C | 2.81% |
| Cc1c(C(=O)NCCCN2CCCCC2)oc2ccc3c(c12)C(=O)CC1(CCCC1)O3 | 0.623% |
| CCCn1c(CCC(=O)O)ccc1-c1ccc(Br)cc1 | -1.1% |
| C=C(C)[C@@H]1CC=C(CN(CCCN(C)C)CCCN(C)C)CC1 | -2.02% |
| CCOC(=O)c1cc2c(=O)n3ccccc3nc2n(C(C)C)/c1=N\C(=O)c1ccc(OCC)cc1 | 2.84% |
| CCn1c2ccccc2c2nnc(NCc3ccccn3)nc21 | -0.102% |
| O=C(c1ccc(N2C(=O)C3CCCCC3C2=O)cc1)N1CCCCC1 (stereo not shown) | -1.43% |
| Cc1c2cnn(CC(=O)NCCCN3C(C)CCCC3C)c(=O)c2c(C)n1Cc1ccccc1 (stereo not shown) | -2.39% |
| CCn1c2ccccc2c2nnc(-n3nc(C)cc3C)nc21 | -2.32% |
| NCCc1n[nH]c(C(c2ccccc2)c2ccccc2)n1 | -6.71% and -8.11% |
| Fc1ccc(Br)cc1SCCc1ccccn1 | -5.23% |
| Cc1ccc(/C=C/C(=O)c2c(O)cc(C)oc2=O)cc1 | -0.902% |
| CCOC(=O)c1c(C)sc2c1OC(N)=C(C#N)C2c1ccc(O)c(OC)c1 (stereo not shown) | 1.76% |
| CC(C)OCc1nc(O)c2c(n1)-c1ccccc1CC21CCCC1 | 4.88% |

| SMILES | % Inhibition @ 10 uM |
| --- | --- |
| Cc1cc(C)n(-c2cc(Oc3ccccc3)ncn2)n1 | -0.884% |
| CCC(Sc1nncn2c1cc1sccc12)C(=O)NCc1ccc(C)cc1 (stereo not shown) | -5.61% |
| C=CCSc1nnc(NC(=O)c2cc(=O)c3cc(C)ccc3o2)s1 | -1.47% |
| CC(Oc1cccc(Cl)c1)C(=O)Nc1cccc(F)c1 (stereo not shown) | -7.31% |
| O=C(CCn1cccc1)NCC1COc2ccccc2O1 (stereo not shown) | -2.67% |
| Cc1ccc(S(=O)(=O)NOCCCN2C(=O)c3ccccc3C2=O)cc1 | -0.992% |
| CCOC(=O)c1cc(-c2ccccc2)sc1NC(=O)C(C(C)C)N1C(=O)c2ccccc2C1=O (stereo not shown) | -6.6% |
| COc1ccc(C(=O)Nc2nc(-c3nnn(-c4ccc(C)cc4C)c3C)ns2)cc1 | 1.97% |
| CCOC(=O)C1=C(CSc2nnc(C)s2)NC(=O)NC1c1ccc(Cl)cc1 (stereo not shown) | 0.9% |
| CCn1nccc1C(=O)Nc1cccc(OC)c1 | -2.8% |
| CCN(CC)CCCN(C)C(=O)Cn1ncc2c(=O)oc3ccc(C)cc3c21 | -7.13% |
| O=C(NCCN1CCOCC1)C1CCC(CNS(=O)(=O)c2ccccc2)CC1 (stereo not shown) | 6.95% |
| Cc1cccc(CN2C(=O)N/C(=C/c3ccc(O)c(Br)c3)C2=O)c1 | 7.64% |
| O=C(Nc1ccc(Cl)cc1)N1CCN(C/C=C/c2ccccc2)CC1 | -0.116% |
| CCCCNC(=O)COCc1cc(-c2ccc(F)cc2)on1 | -4.1% |
| O=C(O)c1[nH]c2ccccc2c1CNCc1ccc2c(c1)OCO2 | -3.21% |
| [O-][n+]1c2c([n+]([O-])c3cc(Br)ccc31)CCCC2 | 0.146% |
| O=C(c1cc(-c2ccc(O)cc2)on1)N1CCc2ccccc2C1 | 0.723% |
| N#Cc1ccccc1NC(=O)c1ccc(Br)cc1 | -4.01% |
| O=C1CCCC1NC(=O)[C@H](CS(=O)(=O)Cc1ccccc1OC(F)F)NC(=O)N1CCOCC1 (stereo partly shown) | 1.35% |
